Experiment [1] deals with T cell receptor (TCR) Vγ9 (TRGV9) (human), Q99603. Description: cell-based or functional assay.
In experiment [2] the target is T cell receptor Vδ2 (TRDV2) on T cells in PBMCs (human), A0JD36. Description: cell-based or functional assay.
T cell receptor Vδ2 (TRDV2) on T cells in PBMCs (human), A0JD36, sequence (A0JD36 20-115, stated change not applied): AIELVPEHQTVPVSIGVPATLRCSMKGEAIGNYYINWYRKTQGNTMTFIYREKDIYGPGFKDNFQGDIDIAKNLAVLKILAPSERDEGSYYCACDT

T cell receptor (TCR) Vγ9 (TRGV9) (human), Q99603, sequence (Q99603 21-122): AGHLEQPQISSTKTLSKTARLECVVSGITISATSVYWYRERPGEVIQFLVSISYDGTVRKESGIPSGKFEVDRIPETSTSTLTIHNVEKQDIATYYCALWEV

B1: VG9B66 (antibody, human IgG1, kappa)
heavy: EVQLVESGGGLVKPGGSLRLSCAASGFTFSTYTMNWVRQAPGKGLEWVSSISSSSFYMDYADSVKGRFTISRDNAKNSLSLLMNSLRAEDTAVYYCARDGDIVATIRGSFDYWGQGTMVTVSS[human IgG1 constant region omitted here]
light: EIVLTQSPSSLSTSVGDRVTITCRASQDITNFLAWYQQKPGKLPKLLIYTASTLQSGVPSRFSGSASGPDFTLTISSLQPEDVATYYCQKYNSAPFTFGPGTKVEIKRTVAAPSVFIFPPSDEQLKSGTASVVCLLNNFYPREAKVQWKVDNALQSGNSQESVTEQDSKDSTYSLSSTLTLSKADYEKHKVYACEVTHQGLSSPVTKSFNRGEC
In experiment [1], B1 showed a CD25+ (Vg9+ cells) of 25.4%; a CD71+ (Vg9+ cells) of 84.6%; a Granzyme B (Luminex, supernatant) of 470; an IFNγ (Luminex, supernatant) of 162. In experiment [1], the IL6 (Luminex, supernatant) came out at 145; the TNFα (Luminex, supernatant) was found to be 405; the Vg9 T cell % stood at 3.8%.

B2: VG9B21 (antibody, human IgG1, kappa)
heavy: EVQLLESGGGLVKPGGSLRLSCAASGFSFSNYDMNWVRQAPRKGLEWVSSISSSSHYIYYADSLKGRFTISRDNAKNSLFLQMNSLRAEDTAVYYCARDRGVTTDYYYYALDVWGQGTMVTVSS[human IgG1 constant region omitted here]
light: DIVMTQSPSSLSASVGDRVTITCRASQGIYNYLAWYQQKPGNVPKLLIYAASTLQSGVPSRFSGSGSGTDFSLTISSLQPEDFTTYYCQKYNRAPFTFGPGTKVDIKRTVAAPSVFIFPPSDEQLKSGTASVVCLLNNFYPREAKVQWKVDNALQSGNSQESVTEQDSKDSTYSLSSTLTLSKADYEKHKVYACEVTHQGLSSPVTKSFNRGEC
As to B2, in experiment [1], the CD25+ (Vg9+ cells) stood at 27.5%; the CD71+ (Vg9+ cells) turned out to be 91.8%; the Granzyme B (Luminex, supernatant) stood at 3150; the IFNγ (Luminex, supernatant) stood at 1660. In addition, in experiment [1], the IL6 (Luminex, supernatant) was found to be 459; the TNFα (Luminex, supernatant) stood at 3330; the Vg9 T cell % amounted to 7.1%.

B3: VG9B409 (antibody, human IgG1, kappa)
heavy: EVQLVESGAEVKKPGASVKVSCKASGYTLTSYYMHWVRQAPGQGLEWMGIINPSGGSTSYAQKFQGRVTMTRDTSTSTVYMELSSLRSEDTAVYYCARGSYGWYFDLWGRGTLVTVSS[human IgG1 constant region omitted here]
light: EIVLTQSPGTLSLSPGERATLSCRASQSVTSSYLAWYQQKPGQTPRLLIYGASSRATGIPDRISGSGSGTDFTLTVSRLEPEDFAVYYCQQYGSSPPYTFGQGTKLEIKRTVAAPSVFIFPPSDEQLKSGTASVVCLLNNFYPREAKVQWKVDNALQSGNSQESVTEQDSKDSTYSLSSTLTLSKADYEKHKVYACEVTHQGLSSPVTKSFNRGEC
In experiment [1], B3 came in with a CD25+ (Vg9+ cells) of 18.7%; a CD71+ (Vg9+ cells) of 80.6%; a Granzyme B (Luminex, supernatant) of 585; an IFNγ (Luminex, supernatant) of 195. In experiment [1], this molecule came in with an IL6 (Luminex, supernatant) of 194; a TNFα (Luminex, supernatant) of 190; a Vg9 T cell % of 3.2%.

B4: VG9B152 (antibody, human IgG1, lambda)
heavy: EVQLVESGGGLVRPGGSLRLSCEASGFTFSSYSMIWVRQAPGKGLEWVSSISSSSDYIYNADSVKGRFTISRDNAKNSLYLQMNSLRAEDTAVYYCARDWELLGFDCWGQGTTVTVSS[human IgG1 constant region omitted here]
light: SYELMQPPSVSVSPGQTASITCSGDKLGDKYACWYQQKPGQSPVLVIYQHNKRPSGIPERFSGSNSGKTATLTISGTQAMDEADYYCQAWDSTTVVFGGGTKLTVLGQPKAAPSVTLFPPSSEELQANKATLVCLISDFYPGAVTVAWKADSSPVKAGVETTTPSKQSNNKYAASSYLSLTPEQWKSHRSYSCQVTHEGSTVEKTVAPTECS
In experiment [1], B4 registered a CD25+ (Vg9+ cells) of 8.1%; a CD71+ (Vg9+ cells) of 81.9%; a Granzyme B (Luminex, supernatant) of 1060; an IFNγ (Luminex, supernatant) of 344. In experiment [1], this molecule gave an IL6 (Luminex, supernatant) of 118; a TNFα (Luminex, supernatant) of 51; a Vg9 T cell % of 3%.

B5: VG9B64 (antibody, human IgG1, kappa)
heavy: QVQLVESGPTLVKPTQTLTLTCTFSGFSLSISGVSVGWIRQPPGKALEWLALIYWNDDKRYSPSLQSRVTITKDTSKNQVVLTVTNMDSVDTATYYCVHSGQWLEGDAFDIWGQGTMVTVSS[human IgG1 constant region omitted here]
light: [about 100 residues omitted here][about 120 residues omitted here]
In experiment [1], B5 showed a CD25+ (Vg9+ cells) of 21.4%; a CD71+ (Vg9+ cells) of 79.6%; a Granzyme B (Luminex, supernatant) of 863; an IFNγ (Luminex, supernatant) of 383. In experiment [1], this molecule came in with an IL6 (Luminex, supernatant) of 122; a TNFα (Luminex, supernatant) of 46; a Vg9 T cell % of 4%.

B6: VG9B32 (antibody, human IgG1, kappa)
heavy: EVQLVQSGGDLLQPGGSLRLSCAASGFTFSRYAMNWVRQAPGKGLEWVSFISGTGYTVYYADSVKGRFTISRDNAKNSLYLQMNSLRDEDTAVYYCARDQEPGFDYWGQGTLVTVSS[human IgG1 constant region omitted here]
light: [about 100 residues omitted here][about 120 residues omitted here]
For the molecule B6, in experiment [1], the CD25+ (Vg9+ cells) came to 19.1%; the CD71+ (Vg9+ cells) amounted to 87.3%; the Granzyme B (Luminex, supernatant) stood at 68; the IFNγ (Luminex, supernatant) amounted to 44. Also, in experiment [1], the IL6 (Luminex, supernatant) was determined as 11; the TNFα (Luminex, supernatant) came out at 10; the Vg9 T cell % turned out to be 5.1%.

B7: VG9B57 (antibody, human IgG1, kappa)
heavy: EVQLVESGGGLVKPGGSLRLSCAASGFTFSSHDMNWVRQAPGKGLGWVSSISSSSSYIFYADSVKGRFTISRDNAKNSLYLQMSSLRAEDTAVYYCARDLGVGVRDYYYYGMDVWGQGTMVTVSS[human IgG1 constant region omitted here]
light: DIQMTQSPSAMSASVGDRVTITCRASQDITNYLAWFQQKPGKVPKRLIYAASSLQGGVPSRFSGSGSGTEFTLTISSLQPEDFSTYYCLQHDTYPYTFGQGTKLEIKRTVAAPSVFIFPPSDEQLKSGTASVVCLLNNFYPREAKVQWKVDNALQSGNSQESVTEQDSKDSTYSLSSTLTLSKADYEKHKVYACEVTHQGLSSPVTKSFNRGEC
In experiment [1], B7 came in with a CD25+ (Vg9+ cells) of 17.1%; a CD71+ (Vg9+ cells) of 77.4%; a Granzyme B (Luminex, supernatant) of 468; an IFNγ (Luminex, supernatant) of 29. For the same molecule, in experiment [1], the IL6 (Luminex, supernatant) amounted to 147; the TNFα (Luminex, supernatant) came to 349; the Vg9 T cell % stood at 4%.

B8: VG9B452 (antibody, human IgG1, lambda)
heavy: QVQLVESGPGLVKPSETLSLTCTVSGGSISNYYWSWIRQPAGKGLGWIGRIYSSGITNYNPSLKSRVTMSVDTSKNQLSLKLSSVTAADTAVYYCAGIVGVKGAFAIWGQGTMVTVSS[human IgG1 constant region omitted here]
light: QSALTQPASVSGSPGQSITISCTGTSSDVGGYNYVSWYQQHPGKAPKLMIYEVSNRPSGVSNRFSGSKSGNTASLTISGLQAEDEADYYCSSYTSTSVVFGGGTKLTVLGQPKAAPSVTLFPPSSEELQANKATLVCLISDFYPGAVTVAWKADSSPVKAGVETTTPSKQSNNKYAASSYLSLTPEQWKSHRSYSCQVTHEGSTVEKTVAPTECS
In experiment [2], B8 showed a CD25+ (Vg9+ cells), flow staining of 26.4%; a CD71+ (Vg9+ cells), flow staining of 84.9%; a Granzyme B, Luninex (supernatant) of 1830; an IFNγ, Luninex (supernatant) of 1040. Besides, in experiment [2], the IL6, Luninex (supernatant) was 273; the TNFα, Luninex (supernatant) was determined as 1890; the Vg9 T cell %, flow staining was 3.6%.

B9: VG9B60 (antibody, human IgG1, kappa)
heavy: QVQLVQSGAEVKKPGASVKVSCKASGYTFTGYYMHWVRQAPGQGLEWMGRINPNSGVTHYAQKFQGRVTMTRDTSISTAYMELSRLRSDDTAVYYCARGGSLVRGVISGLDYWGQGTTVTVSS[human IgG1 constant region omitted here]
light: DIVMTQSPGTLSLSPGERATLSCRASQSFSGSYLAWYQQKPGQAPSLLIYGASSRATGIPDRFSGSGSGTDFTLTISRLEPEDFALYYCQQYGSSPPYTFGQGTKVEIKRTVAAPSVFIFPPSDEQLKSGTASVVCLLNNFYPREAKVQWKVDNALQSGNSQESVTEQDSKDSTYSLSSTLTLSKADYEKHKVYACEVTHQGLSSPVTKSFNRGEC
Take B9: in experiment [1], the CD25+ (Vg9+ cells) turned out to be 9.1%; the CD71+ (Vg9+ cells) was determined as 73%; the Granzyme B (Luminex, supernatant) worked out at 912; the IFNγ (Luminex, supernatant) turned out to be 280. In addition, in experiment [1], the IL6 (Luminex, supernatant) was determined as 269; the TNFα (Luminex, supernatant) is 2420; the Vg9 T cell % was 2.9%.

B10: VG9B411 (antibody, human IgG1, kappa)
heavy: EVQLVESGGGLVKPGGSLRLSCSASGFTFSNYDMNWVRQAPGKGLEWVSSISSSSSYIYYADSVKGRFTISRDNAKNSLYLQMNSLRAEDTAVYHCARDVGVTTDYYYYGMDVWGQGTTVTVSS[human IgG1 constant region omitted here]
light: EIVMTQSPSSVSASVGDRVTITCRASQGINSWLAWYQQDPYKAPKLLIYAASTLQSGVPSRFGGRGSGTEFTLTISSLQPEDFAVYYCQQYNNWPRTFGQGTKVDIKRTVAAPSVFIFPPSDEQLKSGTASVVCLLNNFYPREAKVQWKVDNALQSGNSQESVTEQDSKDSTYSLSSTLTLSKADYEKHKVYACEVTHQGLSSPVTKSFNRGEC
In experiment [1], B10 yielded a CD25+ (Vg9+ cells) of 10.8%; a CD71+ (Vg9+ cells) of 75.4%; a Granzyme B (Luminex, supernatant) of 115; an IFNγ (Luminex, supernatant) of 51. In experiment [1], the IL6 (Luminex, supernatant) was determined as 88; the TNFα (Luminex, supernatant) stood at 25; the Vg9 T cell % came to 3%.

B11: VG9B135 (antibody, human IgG1, kappa)
heavy: QVTLKESGPTLVTPSQTLTLTCTFSGFSLTTYGVGVGWIRQPPGKALEWLALIYWNDDKRYYPSLNNRLTITKDTSKHLVVLTLTNMDPVDTATYYCAHDYDFWSGYFDYWGQGTLVTVSS[human IgG1 constant region omitted here]
light: [about 200 residues omitted here]
In experiment [1], B11 gave a CD25+ (Vg9+ cells) of 20.6%; a CD71+ (Vg9+ cells) of 77.7%; a Granzyme B (Luminex, supernatant) of 270; an IFNγ (Luminex, supernatant) of 57. In experiment [1], this molecule registered an IL6 (Luminex, supernatant) of 717; a TNFα (Luminex, supernatant) of 225; a Vg9 T cell % of 4.3%.
